Our source for the pSTAT5 inhibition values is US20230272055A1, “ANTI-MUTANT CALRETICULIN (CALR) ANTIBODIES AND USES THEREOF” (Incyte Corporation, priority 2021, published 2023).

For this experiment, the system named is pSTAT5 in CD34+ cells isolated from MPN patients. Briefly: pSTAT5 in primary patient CD34+ cells (Meso Scale). The format is cell-based, human. To be noted: FIG. 19A. How it is done:
CD34^+ cells isolated from MPN patients carrying the CALR mutation were used to characterize the ability of an anti-mutCALR antibody to inhibit the mutCALR-derived oncogenic function. Peripheral blood mononuclear cells (PBMCs) were isolated from non-identified blood samples from MPN patients by Ficoll gradient extraction (Fisher Scientific) and CD34^+ cells were enriched using magnetic enrichment (Miltenyi Biotec). CD34^+ cells were cultured for seven days in SFEM-II media ([…] Technologies) containing hSCF, hFLT3L, TPO, LDL2698, SR1, and UM171.
CD34+ cells (50,000 cells/well) were then plated into 96-well plates and treated with a mutCALR or isotype control antibody for 2 hours. Following treatment, plates were centrifuged, the supernatant was aspirated and subsequently washed with PBS. After centrifugation the cell pellets were lysed using lysing buffer (Cell Signaling Technologies) supplemented with 1× Halt™ Protease and Phosphatase Inhibitor Cocktail (Thermo Fisher Scientific). Lysates were added to the Phospho (Tyr694)/Total STAT5a,b whole cell lysate kit (Meso Scale Diagnostics) and phospho-STAT5 levels were then quantitated using Meso Sector S 600 (Meso Scale Diagnostics). […] Moreover, pSTAT5 was not inhibited in CD34+ cells harboring the V617F JAK2 mutation (FIG. 19A).

B1: 74 (antibody)
heavy: EVQLVQSGAEVKKPGASVKVSCKVSGYTLTELSMQWVRQAPGKGLEWMGGFDPDDAETMYAEKFQGRLTVTEDTSTDTVYMELSSLRSEDTAVYFCATSPGYDFFDYWGQGTLVTVSSASTKGPSVFPLAPSSKSTSGGTAALGCLVKDYFPEPVTVSWNSGALTSGVHTFPAVLQSSGLYSLSSVVTVPSSSLGTQTYICNVNHKPSNTKVDKRV[omitted - human IgG1 Fc with changes]
light: SYVLTQPPSVSVAPGKTARITCTGTSSDVGGYNYVSWYQQKPGQAPVLVVYEVSNRPSGIPERFSGSNSGNTATLTISRVEAGDEADYYCQVWDSSNDLLIFGGGTKLTVLGQPKAAPSVTLFPPSSEELQANKATLVCLISDFYPGAVTVAWKADSSPVKAGVETTTPSKQSNNKYAASSYLSLTPEQWKSHRSYSCQVTHEGSTVEKTVAPTECS
In the case of B1, the pSTAT5 inhibition entry (CD34+ cells harboring mutCALR, 2 hours, dose-dependent) is listed as “selectively inhibited” and the pSTAT5 inhibition result (CD34+ cells harboring the V617F JAK2 mutation) is recorded as “not inhibited”.
